Some of the results follow.

These results are taken from paper PMC12820563, “FoxP3 forms a head-to-head dimer in vivo and stabilizes its multimerization on adjacent microsatellites”.

This assay deals with T1, MBP-FoxP1dN (Mus musculus, UniProt P58462 326-579).
T1 sequence: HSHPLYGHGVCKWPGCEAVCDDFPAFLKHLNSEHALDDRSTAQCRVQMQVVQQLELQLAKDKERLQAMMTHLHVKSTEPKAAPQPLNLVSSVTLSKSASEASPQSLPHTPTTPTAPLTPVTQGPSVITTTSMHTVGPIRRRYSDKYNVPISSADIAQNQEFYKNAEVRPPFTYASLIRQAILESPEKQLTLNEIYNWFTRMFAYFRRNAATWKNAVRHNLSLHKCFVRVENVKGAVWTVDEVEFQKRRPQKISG
Kind of assay: PD-seq (MBP pull-down with sequencing); 20 mM Tris-HCl pH 7.5, 100 mM NaCl, 1.5 mM MgCl2, 0.4 uM protein, 0.1 uM dsDNA library, 30 min, room temperature, amylose pull-down; high values mean tight binding. To be noted: protein: recombinant; tags: His6-MBP; chain copies: 2; dsDNA, one strand shown. The gist of the method:
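His6-MBP-tagged mouse FoxP3 or FoxP1 fragment lacking the N-terminus, expressed in E. coli, was mixed at 0.4 µM with 0.1 µM Klenow-filled double-stranded degenerate DNA library. Incubation was 30 min at room temperature in Tris pH 7.5 buffer with NaCl and MgCl2. Complexes were caught on amylose resin and washed three times; DNA was released with proteinase K, PCR-barcoded and Illumina-sequenced. Binding is reads-per-million enrichment, pull-down over input, with replicates pooled.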
As for “GATGATTGTTCTCCCAGCTGATGAATTGATTCCATCGAGTAAACAAATTTTCCTAATCTTTCTGTTCAAGCGCCATCTAC”, the binding signal was 1.09 RPM ratio (pull-down/input).
Consider “GATGATTGTTCTCCCAGCTGATGAATTGCAGGCGTCGAGTAAACAAATTTTCCTAATCTTTCTGTTCAAGCGCCATCTAC”, for which the binding signal is 1.06 RPM ratio (pull-down/input).
The value for “GATGATTGTTCTCCCAGCTGATGAATTCCGCAGGTCGAGTAAACAAATTTTCCTAATCTTTCTGTTCAAGCGCCATCTAC” was 0.719 RPM ratio (pull-down/input); that for “GATGATTGTTCTCCCAGCTGATGAATTACGTATGTCGAGTAAACAAATTTTCCTAATCTTTCTGTTCAAGCGCCATCTAC” was 1.1 RPM ratio (pull-down/input).
The value for “GATGATTGTTCTCCCAGCTGATGAATTCTTGCGCTCGAGTAAACAAATTTTCCTAATCTTTCTGTTCAAGCGCCATCTAC” was 0.907 RPM ratio (pull-down/input); that for “GATGATTGTTCTCCCAGCTGATGAATTAGCGTACTCGAGTAAACAAATTTTCCTAATCTTTCTGTTCAAGCGCCATCTAC” was 0.923 RPM ratio (pull-down/input).
The same measure for “GATGATTGTTCTCCCAGCTGATGAATTACATATCTCGAGTAAACAAATTTTCCTAATCTTTCTGTTCAAGCGCCATCTAC”: 1.35 RPM ratio (pull-down/input).
As for “GATGATTGTTCTCCCAGCTGATGAATTATTCCAATCGAGTAAACAAATTTTCCTAATCTTTCTGTTCAAGCGCCATCTAC”, the binding signal was 1.12 RPM ratio (pull-down/input).
For the sequence “GATGATTGTTCTCCCAGCTGATGAATTAAATGTCTCGAGTAAACAAATTTTCCTAATCTTTCTGTTCAAGCGCCATCTAC”, the binding signal was 0.889 RPM ratio (pull-down/input).
The value for “GATGATTGTTCTCCCAGCTGATGAATTTACGCTTTCGAGTAAACAAATTTTCCTAATCTTTCTGTTCAAGCGCCATCTAC” was 1.39 RPM ratio (pull-down/input); that for “GATGATTGTTCTCCCAGCTGATGAATTGCGAGCATCGAGTAAACAAATTTTCCTAATCTTTCTGTTCAAGCGCCATCTAC” was 1.14 RPM ratio (pull-down/input); that for “GATGATTGTTCTCCCAGCTGATGAATTACTTACATCGAGTAAACAAATTTTCCTAATCTTTCTGTTCAAGCGCCATCTAC” was 1.25 RPM ratio (pull-down/input).
The same measure for “GATGATTGTTCTCCCAGCTGATGAATTGGTCCTCTCGAGTAAACAAATTTTCCTAATCTTTCTGTTCAAGCGCCATCTAC”: 0.834 RPM ratio (pull-down/input); for “GATGATTGTTCTCCCAGCTGATGAATTAGCTAGATCGAGTAAACAAATTTTCCTAATCTTTCTGTTCAAGCGCCATCTAC”: 0.965 RPM ratio (pull-down/input); for “GATGATTGTTCTCCCAGCTGATGAATTGATTAGTTCGAGTAAACAAATTTTCCTAATCTTTCTGTTCAAGCGCCATCTAC”: 1.15 RPM ratio (pull-down/input).
For the sequence “GATGATTGTTCTCCCAGCTGATGAATTAATTGCGTCGAGTAAACAAATTTTCCTAATCTTTCTGTTCAAGCGCCATCTAC”, the binding signal is 1.22 RPM ratio (pull-down/input).
“GATGATTGTTCTCCCAGCTGATGAATTCCTCAGCTCGAGTAAACAAATTTTCCTAATCTTTCTGTTCAAGCGCCATCTAC”: the binding signal was 0.727 RPM ratio (pull-down/input).
Turning to “GATGATTGTTCTCCCAGCTGATGAATTTACTCTCTCGAGTAAACAAATTTTCCTAATCTTTCTGTTCAAGCGCCATCTAC”, the binding signal is 1.17 RPM ratio (pull-down/input).
Take “GATGATTGTTCTCCCAGCTGATGAATTTTTCCCTTCGAGTAAACAAATTTTCCTAATCTTTCTGTTCAAGCGCCATCTAC”: the binding signal is 0.907 RPM ratio (pull-down/input).
In the case of “GATGATTGTTCTCCCAGCTGATGAATTCGCCTCTTCGAGTAAACAAATTTTCCTAATCTTTCTGTTCAAGCGCCATCTAC”, the binding signal was 0.972 RPM ratio (pull-down/input).
The value for “GATGATTGTTCTCCCAGCTGATGAATTCCTTGTCTCGAGTAAACAAATTTTCCTAATCTTTCTGTTCAAGCGCCATCTAC” was 0.853 RPM ratio (pull-down/input); that for “GATGATTGTTCTCCCAGCTGATGAATTTCAGGATTCGAGTAAACAAATTTTCCTAATCTTTCTGTTCAAGCGCCATCTAC” was 0.81 RPM ratio (pull-down/input).
For “GATGATTGTTCTCCCAGCTGATGAATTACGTAAATCGAGTAAACAAATTTTCCTAATCTTTCTGTTCAAGCGCCATCTAC”, the binding signal was 1.34 RPM ratio (pull-down/input).
Take “GATGATTGTTCTCCCAGCTGATGAATTCCGCGCGTCGAGTAAACAAATTTTCCTAATCTTTCTGTTCAAGCGCCATCTAC”: the binding signal was 0.967 RPM ratio (pull-down/input).
With “GATGATTGTTCTCCCAGCTGATGAATTGTCGCCGTCGAGTAAACAAATTTTCCTAATCTTTCTGTTCAAGCGCCATCTAC”, the binding signal is 0.958 RPM ratio (pull-down/input).
The value for “GATGATTGTTCTCCCAGCTGATGAATTTTCTCTGTCGAGTAAACAAATTTTCCTAATCTTTCTGTTCAAGCGCCATCTAC” was 0.831 RPM ratio (pull-down/input).
“GATGATTGTTCTCCCAGCTGATGAATTGCACGTGTCGAGTAAACAAATTTTCCTAATCTTTCTGTTCAAGCGCCATCTAC”: the binding signal is 1.21 RPM ratio (pull-down/input).
The value for “GATGATTGTTCTCCCAGCTGATGAATTCTGGTTATCGAGTAAACAAATTTTCCTAATCTTTCTGTTCAAGCGCCATCTAC” was 0.931 RPM ratio (pull-down/input).
The same measure for “GATGATTGTTCTCCCAGCTGATGAATTCAAAAGATCGAGTAAACAAATTTTCCTAATCTTTCTGTTCAAGCGCCATCTAC”: 0.845 RPM ratio (pull-down/input); for “GATGATTGTTCTCCCAGCTGATGAATTCCTATGGTCGAGTAAACAAATTTTCCTAATCTTTCTGTTCAAGCGCCATCTAC”: 0.848 RPM ratio (pull-down/input); for “GATGATTGTTCTCCCAGCTGATGAATTACAACGTTCGAGTAAACAAATTTTCCTAATCTTTCTGTTCAAGCGCCATCTAC”: 1.24 RPM ratio (pull-down/input).
The same measure for “GATGATTGTTCTCCCAGCTGATGAATTGAGCCGTTCGAGTAAACAAATTTTCCTAATCTTTCTGTTCAAGCGCCATCTAC”: 0.812 RPM ratio (pull-down/input).
